According to publication PMC4336329 (PLoS ONE, 2015):
Screen size: about 310,000 compounds; about 14,000 (4.5%) showed an effect of 50% or more. The effect is printed as a negative number. The list shows a part of the results.

Target: human ether-à-go-go-related gene (hERG) potassium channel (human, UniProt Q12809)
Assay: primary screen, population patch clamp on CHO cells stably expressing hERG
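Also: peak tail current of the secondary pulse compared with the same well before compound.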

human ether-à-go-go-related gene (hERG) potassium channel, sequence (Q12809 whole entry, looked up): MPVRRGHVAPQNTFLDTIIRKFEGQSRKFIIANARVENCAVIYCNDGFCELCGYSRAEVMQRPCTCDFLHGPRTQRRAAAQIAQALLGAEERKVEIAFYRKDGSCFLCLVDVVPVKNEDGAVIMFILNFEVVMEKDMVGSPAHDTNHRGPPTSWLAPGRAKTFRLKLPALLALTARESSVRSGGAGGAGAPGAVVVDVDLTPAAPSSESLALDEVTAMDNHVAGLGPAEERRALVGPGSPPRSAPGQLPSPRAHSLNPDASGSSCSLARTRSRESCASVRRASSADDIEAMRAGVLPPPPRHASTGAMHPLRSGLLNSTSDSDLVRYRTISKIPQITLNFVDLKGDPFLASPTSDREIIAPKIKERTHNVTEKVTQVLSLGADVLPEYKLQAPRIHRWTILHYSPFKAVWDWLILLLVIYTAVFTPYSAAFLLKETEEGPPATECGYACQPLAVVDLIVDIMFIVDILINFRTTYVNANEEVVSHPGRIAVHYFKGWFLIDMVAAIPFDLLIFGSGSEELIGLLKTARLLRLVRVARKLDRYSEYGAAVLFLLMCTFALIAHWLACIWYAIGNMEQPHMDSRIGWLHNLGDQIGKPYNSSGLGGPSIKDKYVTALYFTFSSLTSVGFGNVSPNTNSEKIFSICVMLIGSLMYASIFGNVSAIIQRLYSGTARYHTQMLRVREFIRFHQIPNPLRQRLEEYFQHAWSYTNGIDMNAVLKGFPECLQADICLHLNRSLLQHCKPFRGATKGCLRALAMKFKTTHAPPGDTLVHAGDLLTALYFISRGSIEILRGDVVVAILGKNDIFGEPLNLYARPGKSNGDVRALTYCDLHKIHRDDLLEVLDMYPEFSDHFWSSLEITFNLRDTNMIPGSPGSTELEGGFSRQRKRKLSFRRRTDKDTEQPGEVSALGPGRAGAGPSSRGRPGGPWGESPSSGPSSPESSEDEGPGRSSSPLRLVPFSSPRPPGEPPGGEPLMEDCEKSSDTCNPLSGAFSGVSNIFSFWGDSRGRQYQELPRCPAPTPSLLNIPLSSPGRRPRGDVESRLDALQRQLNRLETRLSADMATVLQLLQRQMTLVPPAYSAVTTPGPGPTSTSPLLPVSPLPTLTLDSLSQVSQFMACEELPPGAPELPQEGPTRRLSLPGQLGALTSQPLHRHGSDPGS

Row | Structure (SMILES) | hERG current change (%, negative = inhibition) at 10uM [%]
1 | COC(=O)c1cc(=O)n(Cc2ccco2)c(=Nc2ccc(F)c(Cl)c2)s1 | -9.32
2 | CCNC(=O)Cc1ccc(Br)cc1 | 14
3 | NC(=O)c1cccnc1OCC(F)(F)F | 2.21
4 | Nc1c(Cl)cc(Cl)cc1C(=O)OCC(=O)N1CCCC1 | -23.9
5 | CCOc1ccc(NC(=O)CSc2nc3ccccc3nc2N2CCOCC2)cc1 | -10.6
6 | Cc1ccc(NC(=O)c2ccc3nsnc3c2)c(Cl)c1 | 15.1
7 | CC(NC(=O)c1ccc2c(c1)OCO2)c1cccc(C(F)(F)F)c1 (stereo not shown) | -20.8
8 | CC(Sc1nnc(-c2cc3ccccc3o2)n1-c1ccccc1)C(=O)O (stereo not shown) | 15.2
9 | Cc1nc(NC(=O)COC(=O)CCS(=O)(=O)c2ccccc2Cl)c(Cl)cc1Cl | 9.37
10 | COc1ccc(CN2CCNC(=O)C2CC(=O)NC2CCCCCCC2)cc1OC (stereo not shown) | -0.601
11 | CN(C1CCS(=O)(=O)C1)S(=O)(=O)c1ccc2ccccc2c1 (stereo not shown) | -15.3
12 | CC1CN(CCc2ccccc2)c2nc3c(c(=O)n(C)c(=O)n3C)n2C1 (stereo not shown) | -33.9
13 | CCOC(=O)c1[nH]c(C)c(C(=O)N(C)Cc2ccccc2)c1C | -2.65
14 | COc1cccc(NC(=S)N(Cc2ccc(C(=O)O)cc2)Cc2ccc(OC)c(OC)c2)c1 | 7.74
15 | COCc1ccc(CN2CCCC(CO)(Cc3ccccc3)C2)o1 (stereo not shown) | -12.4
16 | COC(=O)[C@H](CC(C)C)NC(=O)Nc1ccc2c(c1)OCCO2 | 10.6
17 | CCN(CC)c1ccc(NC(=O)Nc2ccccc2C(F)(F)F)cc1 | 7.72
18 | O=C(Nc1ccc(N2CCCC2)cc1)c1cc([N+](=O)[O-])ccc1N1CCOCC1 | -5.17
19 | CC(c1nnnn1C1CCCCC1)N(Cc1ccccc1)Cc1cccnc1 (stereo not shown) | -34.4
20 | CCOc1nc2ccccc2cc1/C=C/C(=O)O | 11.4
21 | CC1CCCN(c2nc(NCc3ccco3)nc(N)c2[N+](=O)[O-])C1 (stereo not shown) | -54.3
22 | CCC(NC(=O)CCc1ccccc1)c1ccccc1 (stereo not shown) | -3
23 | O=S1(=O)CCOCCN1Cc1ccccc1 | 13.2

Row | Structure (SMILES) | hERG current change (%, negative = inhibition) at 10uM [%]
24 | COc1c2occc2c(OC)c2c(=O)cc(C)oc12 | -6.96
25 | CCOC(=S)SCC(=O)Nc1ncc(C)s1 | 9.73
26 | COc1ccccc1C(=O)N(C1=NC(C)CS1)c1ccc(Cl)cc1 (stereo not shown) | 7.94
27 | O=C(c1cc2ccccc2oc1=O)N(Cc1cccs1)Cc1ccccc1Cl | -4.97
28 | CCN1CCSc2ccc(C(=O)NCc3cccc(F)c3)cc21 | 6.46
29 | CCn1c(CSc2n[nH]c(N)n2)nc2cc(C(=O)O)ccc21 | 12.7
30 | O=C(CCCN1C(=O)c2ccccc2C1=O)N1CCc2ccccc2C1 | -27.2
31 | Cc1cc(NC(=O)CSc2nc(C(C)C)nc3sc4c(c23)CCCC4)no1 | 9.82
32 | Cn1c(=O)c([N+](=O)[O-])c(N2CCN(Cc3ccc4c(c3)OCO4)CC2)c2ccccc21 | -5.82
33 | COc1ccc(C(=O)NCCS(=O)(=O)NCC2CCCO2)cc1 (stereo not shown) | 12
34 | COc1ccc(S(=O)(=O)N2CCC(C(=O)NC3CC3)CC2)cc1OC | -2.79
35 | CCC(C)C(NC(=O)[C@@H](NC(=O)c1ccccc1F)C(C)C)C(=O)OC (stereo partly shown) | 6.15
36 | N#Cc1c(/N=C/c2ccccc2)oc(-c2ccccc2)c1-c1ccccc1 | 15.3
37 | CCOc1ccccc1N1CCN(C(=O)CCCN2C(=O)c3cccc4cccc(c34)C2=O)CC1 | -8.72
38 | O=C1c2ccccc2NC2(CCCCC2)N1N=C1CCCCC1 | 11
39 | Cc1ccc(CN2CCN(c3ccccc3Cl)CC2)o1 | -12.5
40 | Cn1c(SCC(=O)Nc2ccc(Cl)cn2)nnc1C1CC1 | -3.25
41 | CCOC(=O)c1ccc(Nc2ncnc3ccccc23)cc1.Cl | 14.5
42 | Cc1occc1C(=O)NNC(=O)c1ccc(S(=O)(=O)N(C)C)cc1 | 9.03
43 | Cc1ccc(-c2nc3cccnc3o2)cc1NC(=O)COc1ccc(Cl)cc1C | 5.9
44 | O=C(c1ccc(CNS(=O)(=O)c2cccc(C(F)(F)F)c2)cc1)N1CCOCC1 | -6.38
45 | CCOCC(=O)NC1CCSC1=O (stereo not shown) | 24.1
46 | CCc1ccc(NC(=O)NCC2CCN(Cc3cccc(Cl)c3)CC2)cc1 | -82.9

Row | Structure (SMILES) | hERG current change (%, negative = inhibition) at 10uM [%]
47 | O=C(NC(=S)Nc1ccc2c(c1)OCCO2)c1cccc(Br)c1 | -1.58
48 | O=C(O)C(=O)O.O=C(c1cccs1)N1CCN(CCCc2ccccc2)CC1 | -64.5
49 | CCN1C(=O)c2ccccc2S(=O)c2ccc(C(=O)NCc3ccccn3)cc21 (stereo not shown) | 0.339
50 | Cn1c(=O)n(C)c2cc(NC(=O)Cc3ccccc3[N+](=O)[O-])ccc21 | 13.9
51 | Cc1ccc(/C=C2/N=C(c3ccccc3)NNC2=O)cc1 | -14.4
52 | COc1ccc(/C=C/c2c([N+](=O)[O-])c(=O)n(C)c(=O)n2C)c(OC)c1OC | 13
53 | Cc1nc(N2CCCCC2)sc1C(=O)c1cccc([N+](=O)[O-])c1 | -24.4
54 | O=C(/C=C/Nc1cccc(F)c1)c1ccco1 | -0.758
55 | Clc1ccccc1-c1nc(-c2ccccc2)n[nH]1 | -5.74
56 | CCOC(=O)C1CCCN(C(=O)c2ccc3oc(CCc4ccccc4)nc3c2)C1 (stereo not shown) | -27.7
57 | COc1ccccc1-c1nc(C(F)(F)F)c(OC)o1 | -7.54
58 | Cc1ccccc1N1CC(C(=O)NC2CCCC2)CC1=O (stereo not shown) | 10.3
59 | Cc1cccc(-c2nnc(NC(=O)c3ccc(N4C(=O)CCC4=O)cc3)s2)c1 | 9.06
60 | CCCn1cc(C(=O)OCC)c(=O)c2cc(F)c(F)cc21 | 2.11
61 | CCCCc1n[nH]c2c1/C(=N/OCC)CC(C)(C)C2 | 11.7
62 | CCOC(=O)N1CCN(C(=O)c2cccc(S(=O)(=O)Nc3ccccc3Cl)c2)CC1 | -1.78
63 | CC(=O)NS(=O)(=O)c1ccc(NC(=O)CSc2ccc(Cl)cc2)cc1 | 6.91
64 | O=C1N(Cc2cccc(Cl)c2)C[C@@H]2C[C@@H](c3ccsc3)N3CCC[C@@]123 | -60.1
65 | C=CC1=C(C(=O)O)N2C(=O)[C@@H](NC(=O)/C(=N/OCC(=O)O)c3csc(N)n3)[C@H]2SC1.O | 18.9
66 | c1ccc(-n2ncc3c2ncn2cnnc32)cc1 | 9.5
67 | c1ccc(-c2nnnc3ccccc23)cc1 | 10.6
68 | CCCN1CCC(=O)N([C@H](CSc2ccc(Br)cc2)c2ccccc2)CC1 | -76.2
69 | Cc1nc(SCC(=O)Nc2ccc(C)c(F)c2)c2oc3ccccc3c2n1 | 4.4

Row | Structure (SMILES) | hERG current change (%, negative = inhibition) at 10uM [%]
70 | C=CCn1c(=NC(=O)c2cccc(N3C(=O)CCC3=O)c2)sc2cccc(OC)c21 | -5.04
71 | Cl.O=C(COc1ccc(F)cc1)NCCN1CCCC1 | -11.2
72 | O=C(CNC(=O)c1sc2ccccc2c1Cl)Nc1ccccc1F | -6.72
73 | CC1CCN(Cc2cc(=O)oc3cc4c(cc23)CCCC4)CC1 | -6.92
74 | COc1ccc(-c2nc3ncccc3n2O)cc1 | 22.1
75 | Cl.N=c1n(Cc2ccc(Cl)cc2)c2ccccc2n1CC(O)c1ccco1 (stereo not shown) | -64.1
76 | COCCN(C(=O)COC(=O)c1ccc(C)o1)c1c(N)n(Cc2ccccc2)c(=O)[nH]c1=O | 17.2
77 | COc1ccc(N=C(N)N=C(N)N)c(OC)c1 | 4.57
78 | COc1ccc(CC(=O)N2CCC(n3nccc3NC(=O)C3CC3)CC2)cc1 | 13.7
79 | C(=N\Nc1nc2ccccc2[nH]1)/c1cccc2cccnc12 | 1.65
80 | CN(C)c1ccc(Nc2nc(N)c3ccccc3n2)cc1.Cl | -34.8
81 | COc1ccccc1NC(=O)C1CCN(C(=O)C2CC(=O)N(c3ccc(C)cc3)C2)CC1 (stereo not shown) | -9.15
82 | Cc1ccc(C(C(=O)NC2CCCCC2)N2CCCC2)cc1 (stereo not shown) | -11.5
83 | O=C(c1cc(-c2cccc(O)c2)on1)N1CCc2ccccc2C1 | -25.1
84 | COC(=O)c1ccc(CN2CCN(CC=C(C)C)C(CCO)C2)cc1 (stereo not shown) | -7.32
85 | O=C1CC(=O)CC(c2ccccc2)C1 | 2.5
86 | CCN(C(=O)c1cn(C)c(=O)c2ccccc12)c1ccccc1F | 5.71
87 | O=C(NCc1cccnc1)NC1(C(F)(F)F)Oc2ccccc2O1 | -9.07
88 | COc1ccc(CNC(=O)/C=C/C(=O)O)cc1OC | -8.65
89 | O=C(NCc1cccc(C(F)(F)F)c1)C1CC(c2c(Cl)cccc2Cl)=NO1 (stereo not shown) | -7.02
90 | COc1cccc(N2CCN(c3ccc4nnc(CCC(=O)Nc5ccccc5OC)n4n3)CC2)c1 | -62.6
91 | COc1ccc(-c2nn(CCC#N)cc2C(=O)NCc2ccccc2)cc1[N+](=O)[O-] | -59.7
